Source: article PMC5700166
The entries are a selection whose mix differs from that of the whole data set. The list includes weakly bound sequences.

Assays:
Assay in all cases: protein-binding microarray (PBM)
Conditions in all cases: PBM: ~300 nM protein, 6 mM HEPES pH 7.8, 80 mM KCl, 0.5 mM EDTA, 0.5 mM EGTA, 6% glycerol, 35 ng/ul poly-dIdC, 1% milk, 1 h, room temperature; Ap Aiptasia and Nv Nematostella (sea anemones) / Co Capsaspora / Aq Amphimedon (sponge) / Dm Drosophila / Hu human; RHD is the Rel homology domain; high values mean tight binding; most listed sequences are background and not binding sites; double strand, one strand shown
[1] = target: T1, GST-Nv-NF-kB (Cys allele) (UniProt E5G601)
T1 sequence: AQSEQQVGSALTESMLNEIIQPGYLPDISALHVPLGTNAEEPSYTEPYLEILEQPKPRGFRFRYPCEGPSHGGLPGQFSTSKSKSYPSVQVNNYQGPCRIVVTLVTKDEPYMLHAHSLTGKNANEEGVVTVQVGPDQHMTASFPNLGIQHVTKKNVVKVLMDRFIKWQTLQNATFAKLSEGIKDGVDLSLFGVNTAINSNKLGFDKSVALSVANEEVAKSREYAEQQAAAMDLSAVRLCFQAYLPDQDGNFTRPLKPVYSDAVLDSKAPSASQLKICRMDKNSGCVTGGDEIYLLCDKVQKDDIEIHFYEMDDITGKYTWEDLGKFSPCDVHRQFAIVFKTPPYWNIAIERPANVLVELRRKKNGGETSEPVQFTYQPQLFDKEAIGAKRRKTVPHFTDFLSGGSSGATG

[2] = target: T2, GST-Co-NF-kB (UniProt F1ARL5)
T2 sequence: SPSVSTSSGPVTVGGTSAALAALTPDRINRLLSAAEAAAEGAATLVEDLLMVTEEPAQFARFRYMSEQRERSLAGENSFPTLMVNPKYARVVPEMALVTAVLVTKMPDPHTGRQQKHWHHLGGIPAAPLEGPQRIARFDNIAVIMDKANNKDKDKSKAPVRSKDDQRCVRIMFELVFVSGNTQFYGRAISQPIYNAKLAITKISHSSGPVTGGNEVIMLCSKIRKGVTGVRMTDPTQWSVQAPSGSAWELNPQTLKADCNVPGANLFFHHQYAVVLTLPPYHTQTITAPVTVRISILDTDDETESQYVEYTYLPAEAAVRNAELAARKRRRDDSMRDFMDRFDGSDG

[3] = target: T3, GST-Aq-NF-kB (UniProt A9Y5G7)
T3 sequence: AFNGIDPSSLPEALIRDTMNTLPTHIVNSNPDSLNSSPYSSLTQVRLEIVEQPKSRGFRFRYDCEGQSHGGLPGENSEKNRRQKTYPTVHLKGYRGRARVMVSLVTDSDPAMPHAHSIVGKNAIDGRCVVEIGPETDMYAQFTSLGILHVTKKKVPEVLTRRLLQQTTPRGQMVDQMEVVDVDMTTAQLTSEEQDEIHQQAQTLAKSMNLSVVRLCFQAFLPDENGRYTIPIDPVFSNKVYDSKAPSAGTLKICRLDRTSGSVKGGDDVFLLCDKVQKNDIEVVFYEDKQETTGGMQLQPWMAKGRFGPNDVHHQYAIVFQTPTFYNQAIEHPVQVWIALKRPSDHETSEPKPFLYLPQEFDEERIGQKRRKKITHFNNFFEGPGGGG

[4] = target: T4, GST-Dm-Relish (UniProt Q94527)
T4 sequence: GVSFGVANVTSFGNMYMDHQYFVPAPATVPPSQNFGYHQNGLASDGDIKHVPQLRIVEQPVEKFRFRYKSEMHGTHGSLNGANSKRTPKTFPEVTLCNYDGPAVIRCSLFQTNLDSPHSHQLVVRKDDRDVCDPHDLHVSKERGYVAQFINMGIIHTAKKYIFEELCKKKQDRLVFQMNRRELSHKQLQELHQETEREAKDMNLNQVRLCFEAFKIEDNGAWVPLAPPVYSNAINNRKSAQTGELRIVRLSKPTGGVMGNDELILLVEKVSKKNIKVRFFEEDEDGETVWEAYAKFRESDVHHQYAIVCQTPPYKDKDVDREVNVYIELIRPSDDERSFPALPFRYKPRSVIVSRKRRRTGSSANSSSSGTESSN

| Sequence | binding signal [1] | binding signal [2] | binding signal [3] | binding signal [4] |
| --- | --- | --- | --- | --- |
| CCGATTAACATCACGGAAACCCCTGATGTTAATCGGGTCTTGATTCGCTTGACGCTGCTG | 4.37 z-score | 2.13 z-score | 5.38 z-score |  |
| CCGATTAACATCACATCTTCCCCTGATGTTAATCGGGTCTTGATTCGCTTGACGCTGCTG | 6.11 z-score | 6.39 z-score | 4.78 z-score |  |
| CCGATTAACATCACCGGAATTTCTGATGTTAATCGGGTCTTGATTCGCTTGACGCTGCTG | 0.371 z-score | 0.796 z-score | 2.45 z-score |  |
| CCGATTAACATCAAATCCCCCCGTGATGTTAATCGGGTCTTGATTCGCTTGACGCTGCTG | 7.22 z-score | 7.74 z-score | 6.07 z-score |  |
| CCGATTAACATCAGGGGGGAAAATGATGTTAATCGGGTCTTGATTCGCTTGACGCTGCTG | 6.13 z-score | 11.5 z-score | 6.28 z-score |  |
| CCGATTAACATCATCCCTTGTCATGATGTTAATCGGGTCTTGATTCGCTTGACGCTGCTG | 0.811 z-score | 0.499 z-score | 0.8 z-score | 0.162 z-score |
| CCGATTAACATCAGGGGACTACCTGATGTTAATCGGGTCTTGATTCGCTTGACGCTGCTG | 5.88 z-score | 2.47 z-score | 7.36 z-score |  |
| CCGATTAACATCAAGGGAGTTCCTGATGTTAATCGGGTCTTGATTCGCTTGACGCTGCTG | 4.56 z-score | 1.22 z-score | 5.71 z-score |  |
| CCGATTAACATCACATCTTTCCCTGATGTTAATCGGGTCTTGATTCGCTTGACGCTGCTG | 3.96 z-score | 3.84 z-score | 4.25 z-score | 0.781 z-score |
| CCGATTAACATCAAAAAGACCCCTGATGTTAATCGGGTCTTGATTCGCTTGACGCTGCTG | 4.44 z-score | 1.92 z-score | 5.55 z-score |  |
| CCGATTAACATCACGTAAATCCCTGATGTTAATCGGGTCTTGATTCGCTTGACGCTGCTG | 2.8 z-score | 1.01 z-score | 3.3 z-score |  |
| CCGATTAACATCAGGGGCTTCCATGATGTTAATCGGGTCTTGATTCGCTTGACGCTGCTG | 4.89 z-score | 0.135 z-score | 5.03 z-score | 6.97 z-score |
| CCGATTAACATCAAAAAAGCCCCTGATGTTAATCGGGTCTTGATTCGCTTGACGCTGCTG | 11.4 z-score | 1.83 z-score | 8.77 z-score |  |
| CCGATTAACATCAAACTCCCCCGTGATGTTAATCGGGTCTTGATTCGCTTGACGCTGCTG | 5.44 z-score | 7.66 z-score | 5.84 z-score |  |
| CCGATTAACATCACTTTTCCCCCTGATGTTAATCGGGTCTTGATTCGCTTGACGCTGCTG | 7.4 z-score | 10.8 z-score | 5.27 z-score | 3.73 z-score |
